Laboratory results: PubChem BioAssay AID1671188 (National Center for Advancing Translational Sciences (NCATS), 2021)
The whole screen tested about 100,000 compounds, of which about 250 (0.25%) were called active. The shares of active, inactive and inconclusive entries below differ from those in the screen. Calls follow the shape of the dose curve; as a rule, active = well fitted inhibition curve with a large enough effect; inconclusive = small, poorly fitted or top-dose-only effect; inactive = flat fitted curve, though single readings scatter. No potency is given beside an inconclusive call; the fits are too rough.

Target: Alanine aminotransferase 2 (Homo sapiens) (UniProt Q8TD30)
Sequence of UniProt Q8TD30 (Q8TD30 whole entry, looked up): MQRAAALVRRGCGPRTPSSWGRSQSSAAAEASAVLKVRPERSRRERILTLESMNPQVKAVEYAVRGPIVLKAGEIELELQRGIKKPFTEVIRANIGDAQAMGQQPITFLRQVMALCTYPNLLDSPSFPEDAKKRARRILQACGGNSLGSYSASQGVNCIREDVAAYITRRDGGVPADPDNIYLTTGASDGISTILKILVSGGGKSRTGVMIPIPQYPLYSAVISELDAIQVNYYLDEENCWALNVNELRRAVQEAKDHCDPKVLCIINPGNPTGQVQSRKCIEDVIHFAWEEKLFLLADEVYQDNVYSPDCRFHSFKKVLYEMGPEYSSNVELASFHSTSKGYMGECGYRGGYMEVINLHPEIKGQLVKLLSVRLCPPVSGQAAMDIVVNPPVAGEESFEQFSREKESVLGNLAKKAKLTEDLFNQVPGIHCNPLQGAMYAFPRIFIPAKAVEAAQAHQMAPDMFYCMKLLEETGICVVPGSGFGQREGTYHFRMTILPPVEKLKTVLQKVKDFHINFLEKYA
Experiment: Primary qHTS assay for inhibitors of Glutamate pyruvate transaminase 2 (GPT2); also: nearly all actives have a fitted effect of over 60% in size
Settings: Recombinant GPT2, coupled pyruvate oxidase/HRP Amplex Red fluorescence; activity change, negative = inhibition: at 57.7 µM (top of the series) unless noted; series mostly up to 57.7 µM
In short: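 Fluorescence read-out: pyruvate from GPT2 turnover coupled to pyruvate oxidase, HRP and Amplex Red (0.2mM ThPP, 0.2U/mL PO and HRP, 50uM Amplex final). Substrates 250uM a-KG, 2mM L-alanine; enzyme 10ng/uL; 30 min RT.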
% is scaled to controls: 0 for no effect and ±100 for the full control effect; potency is read from the fitted curve at half-maximal effect; tags tell the direction and shape of the fitted curve.

| Compound | activity change, negative = inhibition | Potency | outcome |
| --- | --- | --- | --- |
| O=C(c1ccc(Cl)cc1)N1CC2(CCN(C3CCCCC3)CC2)Cc2ccccc21 | inactive: -12.7% | – | – |
| CC(=O)N1CC2(Cc3ccccc31)CN(C(=O)Nc1ccccc1)C2 | – | inconclusive [inhibitor, single point] | – |
| CCNC(=O)c1coc(COc2ccc3c(c2)C(c2cccc(C)c2)N(C(=O)C2CC2)CC3)n1 (stereo not drawn) | – | – | inactive |
| COc1ccc(N2CCN(C(=O)c3ccc(N4CC5CC(C4)[C@H]4CCCC(=O)N4C5)nc3)CC2)cc1 (stereo partly drawn) | – | inconclusive [inhibitor, full curve] | – |
| COc1ccc(-c2cc(N3CCCC(NC(=O)c4nccc5ccccc45)C3)n[nH]2)cc1 (stereo not drawn) | – | inconclusive [inhibitor, single point] | – |
| O=C(NC1CCN(c2cc(-c3ccc(F)cc3)[nH]n2)CC1)c1cnccn1 | – | inconclusive [inhibitor, single point] | – |
| CC(C)C[C@@H]1N[C@H](C(=O)NCCN(C)C)Cc2cn(Cc3ccccn3)c3cccc1c23 | inactive: -26.5% [at 88.5 µM] | – | – |
| CCOCCNc1ncnc2c1CN(C1CCCCC1)C(=O)CN2C | – | inconclusive [inhibitor, single point] | – |
| CC(C)Oc1ccc(CNC(=O)C(C)C2CCOCC2)cc1 (stereo not drawn) | – | – | inactive |
| CC(C)(C)C(=O)N1CCCC(C(=O)N2CCCC(c3nc4ncccc4[nH]3)C2)C1 (stereo not drawn) | – | inconclusive [inhibitor, single point] | – |
| O=C(Nc1ccccc1)[C@@H]1C[C@@H](c2ccc(F)cc2)N([S+](=O)([O-])c2ccccc2)C1 | – | inconclusive [inhibitor, single point] | – |
| CC(=O)N1CCN(c2cc(-c3noc([C@@H]4CCCN4Cc4ccccc4C)n3)ccn2)CC1 | – | inconclusive [inhibitor, partial curve, poor fit] | – |
| COc1ccc(-c2cnc3[nH]cc(CC(=O)Nc4ccc(OC)nc4)c3c2)cc1 | inactive: 1.71% [at 88.5 µM] | – | – |
| C=CCc1ccc(O)c(OC)c1 | – | inconclusive [inhibitor, single point] | – |
| C[C@@H](NS(C)(=O)=O)c1onc(-c2cccnc2)c1C(=O)O | – | inconclusive [inhibitor, single point] | – |
| CCCn1cc(CNC(=O)c2cc3c(s2)CCC(C)C3)cn1 (stereo not drawn) | inactive: -10.5% | – | – |
| C#CCNC(=O)CC[C@H]1CNC(=O)[C@@H]2[C@@H](CCN2Cc2ccc(C)cc2)N1C | – | inconclusive [inhibitor, single point] | – |
| CCCC(=O)Nc1cc(C2CC2)nn1-c1ccccc1 | – | inconclusive [inhibitor, full curve] | – |
| Cc1nc2c(c(-c3ccc(Cl)cc3)n1)CCN(C(=O)C(C)(C)C)CC2 | – | inconclusive [inhibitor, single point] | – |
| CC(=O)OCC(=O)NCCCOc1cccc(CN2CCCCC2)c1 | – | inconclusive [inhibitor, full curve, poor fit] | – |
| Cc1ccc2oc(C(=O)N(C)Cc3nc(-c4cccnc4)no3)c(C)c2c1 | inactive: 3.34% [at 11.5 µM] | – | – |

| Compound | activity change, negative = inhibition | Potency | outcome |
| --- | --- | --- | --- |
| COc1cccc(C(=O)N2CCOCC2CC(=O)N2CCNC(=O)C2)c1 (stereo not drawn) | – | inconclusive [inhibitor, single point] | – |
| O=C(NCc1ccccc1)c1c(OCC2CC2)cc(=O)n2c1CCOCC2 | – | inconclusive [inhibitor, partial curve, poor fit] | – |
| COc1ccccc1OCCNC(=O)C1CCc2ncc(-c3ccc(F)cc3)n2C1 (stereo not drawn) | – | – | inactive |
| O=C(NC1CCN(c2cc(-c3ccc(Cl)cc3)[nH]n2)C1)c1ccc2[nH]ccc2c1 (stereo not drawn) | – | inconclusive [inhibitor, partial curve, poor fit] | – |
| COc1ccc(-c2cnc3[nH]cc(CC(=O)N4CCOCC4)c3c2)cn1 | – | inconclusive [inhibitor, single point] | – |
| CC(C)CNC(=O)c1ccc2oc(-c3ccncc3Cl)nc2c1 | – | – | inactive [at 88.5 µM] |
| CN(Cc1ccccc1)C(=O)[C@H]1C[C@@H](O)[C@H](O)[C@@H]2N=C(Nc3ccc(-n4cccn4)cc3)S[C@@H]21 | inactive: -1.74% | – | – |
| O=C(NC1CCN(c2cc(-c3ccc(F)cc3)[nH]n2)C1)c1cc(F)ccc1Cl (stereo not drawn) | – | inconclusive [inhibitor, single point] | – |
| CCc1nc(NC(=O)Cn2nc3c(cc2=O)CCCC3)sc1C | – | inconclusive [inhibitor, full curve, poor fit] | – |
| CCn1nccc1C(=O)N1CC(c2nc(CCOc3cccc(C)c3)no2)C1 | inactive: -29.2% | – | – |
| COC[C@@H]1CN(c2ncccn2)C[C@H]1C(=O)N1CCc2ccccc21 | – | inconclusive [inhibitor, single point] | – |
| O=C(c1cccc2[nH]ccc12)N1CCCN(c2cc(-c3ccc(Cl)cc3)[nH]n2)CC1 | – | inconclusive [inhibitor, single point] | – |
| Cc1noc2c(-c3cccnc3NC3CCN(C)CC3)cc(-c3ccccc3)nc12 | – | – | inactive [at 88.5 µM] |
| Cc1ccc(C2Cn3nnc(-c4noc(-c5sccc5C)n4)c3CO2)cc1 (stereo not drawn) | – | inconclusive [inhibitor, single point] | – |
| O=C(NC1CCCN(c2cc(-c3ccc(F)cc3)[nH]n2)C1)c1ccc2ncccc2c1 (stereo not drawn) | – | inconclusive [inhibitor, single point] | – |
| CCCCN1C[C@H](O)[C@@H](O)[C@H](O)[C@H]1CO | – | inconclusive [inhibitor, single point] | – |
| CC(CN)(CN1CCOCC1)c1ccccn1 (stereo not drawn) | inactive: -3.15% [at 88.5 µM] | – | – |
| COc1ccc2c(c1)OCC(C(=O)NCc1cc3cc(OC)ccc3[nH]1)C2 (stereo not drawn) | – | inconclusive [inhibitor, full curve, poor fit] | – |
| Cc1ccc2nc(CO[C@H]3CN(C(=O)C4CCOCC4)C[C@H]3F)[nH]c2c1 | – | inconclusive [inhibitor, full curve, poor fit] | – |
| CN(Cc1ccccc1)C(=O)C[C@@H]1CCNC[C@@H]1Cc1cc(CN(C)c2ccccc2)on1 | – | inconclusive [inhibitor, single point] | – |
| O=C(c1ccc2c(c1)OCO2)N1CCCC2(C1)Nc1cccnc1NC2=NC1CCCC1 (stereo not drawn) | – | inconclusive [inhibitor, partial curve, poor fit] | – |

| Compound | activity change, negative = inhibition | Potency | outcome |
| --- | --- | --- | --- |
| Cc1c(C)n(Cc2ccc(-c3ccccc3C(=O)O)cc2)c2ccc(C(=O)N[C@@H](C)c3ccc([N+](=O)[O-])cc3)cc12 | – | inactive | – |
| CCOc1cc(N2CCC(O)CC2)ccc1Nc1ncc2c(n1)N(C1CCCC1)CCC(=O)N2C | – | inconclusive [inhibitor, partial curve, poor fit] | – |
| O=C1CO[C@H]2CCN(Cc3ccccc3)CC[C@@H]2N1CCc1cccnc1 | – | – | inactive [at 88.5 µM] |
| Fc1ccc(OC2CN(Cc3cccc4ccccc34)C2)c(F)c1 | – | – | inactive |
| O=C(C1CCOC1)N1CCc2onc(C(c3ccccc3)c3ccccc3)c2C1 (stereo not drawn) | – | inconclusive [inhibitor, single point] | – |
| CN1C(=O)C(CC(=O)NC2CCCCC2)Sc2ncccc21 (stereo not drawn) | – | inconclusive [inhibitor, single point] | – |
| Cc1[nH]c2c(c1C(=O)NC1CC(c3nnc(CN(C)C)n3C)C1)C(=O)CCC2 (stereo not drawn) | – | inconclusive [inhibitor, single point] | – |
| CC(=O)N1CCN(C(=O)C[C@@H]2c3nc(NC(=O)C4CCCCC4)sc3C[C@@H]3[C@](C)(CO)[C@H](O)CC[C@]32C)CC1 | – | inconclusive [inhibitor, full curve, poor fit] | – |
| CNC(=O)C1(N2CCC[C@H]2C(=O)N(C)CCN(C)C)CCOCC1 | – | inconclusive [inhibitor, single point] | – |
| Cc1noc([C@@H]2CC(F)(F)CN2C(=O)CCc2c(C)noc2C)n1 | – | inconclusive [inhibitor, full curve, poor fit] | – |
| COc1cncc(N2CC3(COCC(=O)N(Cc4cccc(OC(F)(F)F)c4)C3)C2)c1 | – | inconclusive [inhibitor, single point] | – |
| CCc1cccc2c(C(CC(=O)NCc3ccco3)c3ccc(C)cc3)c[nH]c12 (stereo not drawn) | inactive: 0.332% | – | – |
| CCCNC(=O)c1coc(COc2ccc3c(c2)C(c2cccc(C)c2)N(C(=O)C2CC2)CC3)n1 (stereo not drawn) | – | – | inactive |
| CN(C(=O)c1ccc2nc(-c3ccc(F)cc3)cn2c1)C1CCOCC1 | – | – | inactive [at 11.5 µM] |
| O=C(/C=C/c1ccc(O)cc1)O[C@H]1[C@H](OC2CCCCC2O)O[C@H](CO)[C@@H](O)[C@@H]1O (stereo partly drawn) | – | inconclusive [inhibitor, single point] | – |
| O=C(NCC1CCN(c2cc(-c3ccc(F)cc3)[nH]n2)CC1)c1cc(C2CC2)[nH]n1 | – | inconclusive [inhibitor, partial curve] | – |
| N#Cc1cccc(NC(=O)N[C@H]2CO[C@H]3[C@@H]2OC[C@@H]3Nc2nccc(-c3cccc(F)c3)n2)c1 | inactive: -1.68% | – | – |
| O=C(O)c1cc(O[C@@H]2O[C@H](CO)[C@@H](O)[C@H](O)[C@H]2O)ccc1O | – | inconclusive [inhibitor, single point] | – |
| O=C(Cn1ccn2nc(-c3ccccc3)c(CO)c2c1=O)Nc1ccc2c(c1)CCC2 | – | inconclusive [inhibitor, partial curve, poor fit] | – |
| OC1(c2nc(Nc3ccc(OC(F)(F)F)cc3)n[nH]2)CCOCC1 | – | inconclusive [inhibitor, full curve, poor fit] | – |
| CCOC(=O)C1CCCN(C(=O)CC(c2ccc3c(c2)OCO3)c2cn(CC)c3ccccc23)C1 (stereo not drawn) | – | inconclusive [inhibitor, partial curve] | – |
